The list shows a part of the results.

The labels stand for the following.
B1: chrX:12823584:12823685:+|3pUTR|ENSG00000101911|unk|total|mutant (ssRNA)
RNA: GGGAGUUCUACAGUCCGACGAUCUGACUUAAAGGUAAUCAUUUCAGCUAAGAUUAAAUUUAAAGCCUAAGAAUGUACCGAGCCCGUUUUAAAAUAAUGAUCUCAGAUUUUUAAAAAGGAUACCGGAACCUGCAUUGUCAUUCUCAACAGAGGAUUGAGCAUCA
B2: chr21:43982464:43982545:+|3pUTR|ENSG00000160216|msi1_unk|total|mutant (ssRNA)
RNA: GGGAGUUCUACAGUCCGACGAUCCCCUGACGGUGGUAUCCAGUUAACUCAAAACCAACACACAGAGUGCAGGAAAAGACAAUCCGAAACUAUUUUUCUUAUUAACUGGUGACUAAUAUUAACAAAACUUGAGCCAAGAGUAAACAACAGAGGAUUGAGCAUCA
B3: chr2:148946928:148947042:+|CDS|ENSG00000168280|unk|total|mutant (ssRNA)
RNA: GGGAGUUCUACAGUCCGACGAUCGAAUGAACACAGCUCCCGAAGUCACAGUAUCUUCCUGAUAAAUAUUAAACAAGAGAAUGCCGAGACUGAAAAAAAACUCAGUGGGAAACUUUAUUUGGUUGAUUUGGCUGGGAGCGAAAACAACAGAGGAUUGAGCAUCA
B4: chr8:11323570:11323671:+|3pUTR|ENSG00000104643|unk|FALSE|unique (ssRNA)
RNA: GGGAGUUCUACAGUCCGACGAUCGAGCAUACAUAUACAAUGUGUUUCAAAUGCUGCUUGUAAAAUUAAACCAUCAUCUAGAAUAGAGUUAAUUUAUUAUAAUCAAGCUACAAAUAGGUUUUCUUAAACCAGAGAUGCACUGCCCAACAGAGGAUUGAGCAUCA
B5: ENSG00000136888:stop:overlap|stop_codon|ENSG00000136888|stop_codon|NA|stop_codon (ssRNA)
RNA: GGGAGUUCUACAGUCCGACGAUCUCUUGGCUUUUGUCUGUGACAUUCGGCCAGAAAUCCAUGAAAACUACCGCAUAAAUGGAUAGAAGAGAGAAGCACCUGUGCUGUGGAGUGGCAUUUUAGAUGCCCUCACGAAUAUGAAGCCAACAGAGGAUUGAGCAUCA
B6: chr18:67510860:67510961:-|3pUTR|ENSG00000171451|msi1|FALSE|bound_elsewhere (ssRNA)
RNA: GGGAGUUCUACAGUCCGACGAUCACUAAUAAUACUUACCAACCCACUUUGUGGAUAUGAAUCAGAAGAGUUUGUUUAUUCUUUAGUGUGUGUGUGUGUGUGCACGCGUGUAUGUGUUCAGUGUUGUUUGCACAGAGAGAUUGUCAACAGAGGAUUGAGCAUCA
B7: ENSG00000136451:be:win_501|CDS|ENSG00000136451|bound_else_gene|NA|bound_elsewhere_windowed (ssRNA)
RNA: GGGAGUUCUACAGUCCGACGAUCUAAGCCUGUCAAGAAGAACCAUGCUUGUGAGAUGUGUGGGAAGGCCUUCCGAGAUGUGUACCAUCUCAAUCGACACAAGCUCUCCCAUUCAGAUGAGAAACCCUUUGAGUGUCCUAUUUGCAACAGAGGAUUGAGCAUCA
B8: ENSG00000117139:stop:overlap|stop_codon|ENSG00000117139|stop_codon|NA|stop_codon (ssRNA)
RNA: GGGAGUUCUACAGUCCGACGAUCAUGAAUACUGUUUGUUUUUUGUUUUUCCUUCCAGAUUAGACUUUGGGGGAUUUCUUAUAUAGAAUAAAGGGCUUGAUUAUAUGUAGCCUCUAUCCUGGAGAAAGGUUAUGUAAUUUGGACCAACAGAGGAUUGAGCAUCA
B9: chr1:152032676:152032810:-|CDS|ENSG00000163191|unk|FALSE|unique (ssRNA)
RNA: GGGAGUUCUACAGUCCGACGAUCGGACCCUGGUGUCCUUGACCGCAUGAUGAAGAAACUGGACACCAACAGUGAUGGUCAGCUAGAUUUCUCAGAAUUUCUUAAUCUGAUUGGUGGCCUAGCUAUGGCUUGCCAUGACUCCUUCAACAGAGGAUUGAGCAUCA
B10: chr17:63354981:63355093:+|CDS|ENSG00000170921|unk|total|mutant (ssRNA)
RNA: GGGAGUUCUACAGUCCGACGAUCCAGUCAAGGGUCCUAUCUAUAUCUGAAACUUACAUUUGACCUCACCGAGAAAGGCUAUCCCGUGUUAAAGAGCUCCCGCUACAAAGCCGUUCCUGUUUCGCUCUCAGAGGUUUAUUUACUCAACAGAGGAUUGAGCAUCA
B11: chr8:70573615:70573716:-|3pUTR|ENSG00000067167|msi1|FALSE|unique (ssRNA)
RNA: GGGAGUUCUACAGUCCGACGAUCCAGUGUUCACAUCUUGUUCCCCAUUUCUCACUUGUGUCACCAGCUGUUUGUGCCAUUUUUAGUGUAAAAGUUGCAGACCUAUUAGAUCUGCAGUUUAAGUUGCCAUGCUGCUAGGAAAUUCAACAGAGGAUUGAGCAUCA
B12: chr22:38864602:38864703:-|3pUTR|ENSG00000183741|msi1|total|mutant (ssRNA)
RNA: GGGAGUUCUACAGUCCGACGAUCGCUGUGCUGCCAUGGGCCCCUCCCUCAGAAGCACGUUGGCAGGAGGCCGAUCAGAACCCCCGCGCCUUUGGUCCUAAGAAUGGGAGGCUGCCUUCCUUCCCAAUCUCCCUGCCAGGGCCCCAACAGAGGAUUGAGCAUCA
B13: chr12:110350735:110350839:+|3pUTR|ENSG00000174437|unk|FALSE|unique (ssRNA)
RNA: GGGAGUUCUACAGUCCGACGAUCUACAGUUUGCUUAUUUAUAAAUUCAUUAAAAACACUACAGGUGUUGAAUGGUUAAAAUGUAGGCCUCCAGUUCAUUUUCAGUUAUUUUCUGAGUGUGCAGACAGCUAUUUCGCACUGUAUCAACAGAGGAUUGAGCAUCA
B14: chr1:93346344:93346492:+|5pUTR|ENSG00000117505|unk|total|mutant (ssRNA)
RNA: GGGAGUUCUACAGUCCGACGAUCGCCGCUCAAAUUUCCGGACCACCGCGCUUUCCCCUCCUCAGCCUGGGCUGUGCUCUCUCCCGAAUCCUCGGGCCCCCACUUUCUUCCCAAACUCAUCCUAAAUCUCUCACACACGCGAGUCAACAGAGGAUUGAGCAUCA
B15: chr4:103158754:103158855:-|CDS|ENSG00000138778|msi1|total|mutant (ssRNA)
RNA: GGGAGUUCUACAGUCCGACGAUCGGAGAAAACACGUGAGGUUCAAGAAAGACUAAAUGAGAUGGAACAGCUGAAGGAACAAUCCGAAAACCGAGAUUCUACGCUGCAAACUGCCGAAAGGGAGAAAACACUGAUUACUGAGAACAACAGAGGAUUGAGCAUCA
B16: chr19:58083837:58084684:-|three_prime_utr|ENSG00000121413|control|control|control (ssRNA)
RNA: GGGAGUUCUACAGUCCGACGAUCGCUCGCAUCCGAGGGGAGCCGCCGGAUGUGGAAGAAGACUCGGCUUUCCUGCAGCCAUUUAGUGCCGCCCCAUGCUAGGUUAUUUGACAUUGUGCAGUGUAGAGUUGCCUUAAAGUGCGUCAACAGAGGAUUGAGCAUCA
B17: chr2:120221238:120221343:-|3pUTR|ENSG00000226479|unk|total|mutant (ssRNA)
RNA: GGGAGUUCUACAGUCCGACGAUCAUAUGUUGAAUUCCCGUUCUCUGCAUUACCAUUAUUACGUUAAAGUAUUUUUUAAAGCUCCGGUGUGAAGAUAUGUGUCUAUUGCAGAUGUCCUUGAAAACUGCAUAAAACAGUAUGUGCCAACAGAGGAUUGAGCAUCA
B18: chr5:119149357:119149458:+|CDS|ENSG00000172869|msi1|FALSE|unique (ssRNA)
RNA: GGGAGUUCUACAGUCCGACGAUCCUGGGAGAGUACCAAAGUUGUGCCCCUUUCUAAAUUUGUACUAUUACGAAGUGUGGACCUAGUUUCUUCUGUAGAUGGCUCCCCACCUUUUCCUGUUUCUUUAUCGUGGGUCCGGGAUGGCAACAGAGGAUUGAGCAUCA
B19: ENSG00000115216:stop:overlap|stop_codon|ENSG00000115216|stop_codon|NA|stop_codon (ssRNA)
RNA: GGGAGUUCUACAGUCCGACGAUCACAAGUUCAAUUUUGCCAGGAACAGUACCCUCAACUCAGCCGCUGUCACCGUCUCCUCUUAGAGCUCACUCGGGCCAGGCCCUGAUCUGCGCUGUGGCUGUCCCUGGACGUGCUGCAGCCCAACAGAGGAUUGAGCAUCA
B20: ENSG00000132341:stop:overlap|stop_codon|ENSG00000132341|stop_codon|NA|stop_codon (ssRNA)
RNA: GGGAGUUCUACAGUCCGACGAUCUCUCGCCCCACCAGAAGUUGUCAUGGACCCAGCUUUGGCAGCACAGUAUGAGCACGACUUAGAGGUUGCUCAGACAACUGCUCUCCCGGAUGAGGAUGAUGACCUGUGAGAAUGAAGCUGCAACAGAGGAUUGAGCAUCA
B21: chr3:194644572:194644746:-|CDS|ENSG00000041802|control|control|control (ssRNA)
RNA: GGGAGUUCUACAGUCCGACGAUCGCAUCAACACCAGCGACUCCUAGAGAACAAAAUGAACAGUGAUGAAAUAAAAAUGCAGCUAGGCAGAAAUAAAAAAGCAAAGCAGAUUGAAAAUAUCGUUGACAAAACUUUUUUCCAUCACAACAGAGGAUUGAGCAUCA
B22: chr12:104012598:104012803:-|three_prime_utr|ENSG00000120820|control|control|control (ssRNA)
RNA: GGGAGUUCUACAGUCCGACGAUCCUGAGAUGCUGGAAGCUAAGACGUUAACAAACGGACUCUGGAGGACACAAUUCAGUCCAUAGCAGUAUCUACACCUCAAUAAACUGUUCUAAAAGAGAGAGAGAGAGAAGGAAGUCACAUCAACAGAGGAUUGAGCAUCA

The assay addresses MSI1 full-length (mouse, UniProt Q61474 1-362). Briefly: nsRBNS (natural sequence RNA bind-n-seq); RBNS binding buffer (assumed for nsRBNS): 25 mM Tris pH 7.5, 150 mM KCl, 3 mM MgCl2, 0.01% Triton X-100, 500 ug/ml BSA, 20 U/ml SUPERase-In, 4 C; UNK is unkempt and MSI1 is Musashi-1; names of the RNAs are library labels; protein concentration not given here; high values mean tight binding.
Chain of UniProt Q61474 (Q61474 whole entry): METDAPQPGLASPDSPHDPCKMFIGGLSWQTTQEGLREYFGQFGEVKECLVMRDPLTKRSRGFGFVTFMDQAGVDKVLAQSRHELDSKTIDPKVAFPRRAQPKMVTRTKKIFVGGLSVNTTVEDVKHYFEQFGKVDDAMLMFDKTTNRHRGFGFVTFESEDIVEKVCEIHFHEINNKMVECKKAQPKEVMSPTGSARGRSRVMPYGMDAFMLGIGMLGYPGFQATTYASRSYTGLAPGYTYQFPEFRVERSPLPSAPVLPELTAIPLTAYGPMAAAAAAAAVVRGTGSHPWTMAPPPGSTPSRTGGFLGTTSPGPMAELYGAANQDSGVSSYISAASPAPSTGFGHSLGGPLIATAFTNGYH
For the molecule B1, the binding signal came out at 0.29 enrichment R.

Molecule B2 had a binding signal of 0.485 enrichment R.

Molecule B3 returned a binding signal of 0.453 enrichment R.

Consider B4, for which the binding signal amounted to 4.16 enrichment R.

Molecule B5 gave a binding signal of 0.385 enrichment R.

The molecule B6 displayed a binding signal of 0.452 enrichment R.

B7 returned a binding signal of 0.372 enrichment R.

Consider B8, for which the binding signal amounted to 0.597 enrichment R.

As for B9, the binding signal is 0.264 enrichment R.

B10 displayed a binding signal of 0.604 enrichment R.

Molecule B11 gave a binding signal of 0.937 enrichment R.

B12 displayed a binding signal of 0.697 enrichment R.

Molecule B13 came in with a binding signal of 0.745 enrichment R.

The molecule B14 yielded a binding signal of 1.04 enrichment R.

In the case of B15, the binding signal stood at 0.495 enrichment R.

For the molecule B16, the binding signal is 0.686 enrichment R.

B17 came in with a binding signal of 0.867 enrichment R.

Take B18: the binding signal came out at 0.952 enrichment R.

B19: the binding signal is 0.763 enrichment R.

Turning to B20, the binding signal is 0.416 enrichment R.

With B21, the binding signal is 0.528 enrichment R.

The molecule B22 registered a binding signal of 0.905 enrichment R.

Source of the values: PMC12136788.
